Data on 195 variants can be found in a collection of fitness landscapes (doi:10.1126/science.1257360).

First the molecules themselves.
B1: PhoQ; a variant is named by its letters at X, in order, P23837 (parent)
chain: MKKLLRLFFPLSLRVRFLLATAAVVLVLSLAYGMVALIGYSVSFDKTTFRLLRGESNLFYTLAKWENNKLHVELPENIDKQSPTMTLIYDENGQLLWAQRDVPWLMKMIQPDWLKSNGFHEIEADVNDTSLLLSGDHSIQQQLQEVREDDDDAEMTHSVAVNVYPATSRMPKLTIVVVDTIPVELKSSYMVWSWFIYVLSANLLLVIPLLWVAAWWSLRPIEALAKEVRELEEHNRELLNPATTRELTSLVRNLNRLLKSERERYDKYRTTLTDLTHSLKTPLXXLQXXLRSLRSEKMSVSDAEPVMLEQISRISQQIGYYLHRASMRGGTLLSRELHPVAPLLDNLTSALNKVYQRKGVNISLDISPEISFVGEQNDFVEVMGNVLDNACKYCLEFVEISARQTDEHLYIVVEDDGPGIPLSKREVIFDRGQRVDTLRPGQGVGLAVAREITEQYEGKIVAGESMLGGARMEVIFGRQHSAPKDE

The other results are listed elsewhere or left out.

The variants in this experiment derive from B1. Description: enrichment ratio after two sorts for PhoP signalling (ratio (wild type AVST 3.29)); higher = more functional. The settings on record: with PhoP (E. coli).
For the variant IFYN, the enrichment ratio is at most 0.25.
On to HGCF, for which the enrichment ratio is at most 0.25.
In the case of KTYC, the enrichment ratio is at most 0.25.
The result for IMWK reads at most 0.25; that for RGND, at most 0.25; that for HMHC, at most 0.25.
With KFNS, the enrichment ratio is at most 0.25.
The result for NWWG reads at most 0.25.
As for VMVK, the enrichment ratio was at most 0.25.
The result for WYVE reads at most 0.25; that for ILHR, at most 0.25; that for RIEN, at most 0.25.
The result for ISHN reads at most 0.25; that for RREM, at most 0.25; that for WCYY, at most 0.25.
With VQQL the figure was at most 0.25.
On to LAKE, for which the enrichment ratio was at most 0.25.
With TFEG the figure was at most 0.25; with EHPY, at most 0.25.
The result for DEFP reads at most 0.25; that for TRGM, at most 0.25; that for MMQL, at most 0.25.
VYGR: the enrichment ratio is at most 0.25.
VNYE: the enrichment ratio was at most 0.25.
On to RDRF, for which the enrichment ratio was at most 0.25.
The result for GFVG reads at most 0.25; that for PNEI, at most 0.25; that for KKYT, at most 0.25.
With FTCY the figure was at most 0.25; with NDAT, at most 0.25.
As to PQFP, the enrichment ratio is at most 0.25.
With GPRP the figure was at most 0.25.
The result for WIRI reads at most 0.25; that for TNAP, at most 0.25; that for LAFD, at most 0.25.
The result for RIMH reads at most 0.25; that for TVVA, at most 0.25; that for WKAV, at most 0.25.
With LRCW, the enrichment ratio was at most 0.25.
As to IVYG, the enrichment ratio is at most 0.25.
With PQRF the figure was at most 0.25; with WPPH, at most 0.25; with QPHG, at most 0.25.
The result for QCPQ reads at most 0.25; that for VQVS, at most 0.25; that for YREN, 4.52.
Take FAYG: the enrichment ratio is at most 0.25.
For FFYD, the enrichment ratio was at most 0.25.
For HRLQ, the enrichment ratio is at most 0.25.
On to LKHQ, for which the enrichment ratio is at most 0.25.
On to NVRF, for which the enrichment ratio is at most 0.25.
The result for TIWD reads at most 0.25; that for YPIG, at most 0.25; that for QPNI, at most 0.25.
With EHQN, the enrichment ratio was at most 0.25.
With ARVP the figure was at most 0.25; with PQSV, at most 0.25; with TLDF, at most 0.25.
With LRPY the figure was at most 0.25; with HYNH, at most 0.25.
As to VKGH, the enrichment ratio is at most 0.25.
With RQKW the figure was at most 0.25; with NQWQ, at most 0.25.
With FPTQ the figure was at most 0.25; with HASG, at most 0.25; with DSNH, at most 0.25.
The result for SFCF reads at most 0.25; that for GLRH, at most 0.25.
As to ILVP, the enrichment ratio was at most 0.25.
With VSVY the figure was 0.301; with HGLD, at most 0.25; with HFWA, at most 0.25.
The result for GYND reads at most 0.25.
The result for MLMA reads at most 0.25; that for YGPG, at most 0.25.
Take SAIP: the enrichment ratio was at most 0.25.
On to QQFN, for which the enrichment ratio was 5.64.
The result for RNGC reads at most 0.25; that for HRMD, at most 0.25.
The result for VCYG reads at most 0.25; that for DYMI, at most 0.25; that for NGTD, at most 0.25.
The result for GHCD reads at most 0.25; that for MCHQ, at most 0.25.
Consider HPSF, for which the enrichment ratio is at most 0.25.
The result for QLTF reads at most 0.25; that for LNRG, at most 0.25.
In the case of TMIV, the enrichment ratio is at most 0.25.
As for AFQG, the enrichment ratio is at most 0.25.
For RQVM, the enrichment ratio was at most 0.25.
The result for SHCS reads 1.13.
Turning to DNGK, the enrichment ratio is at most 0.25.
With TWTI the figure was at most 0.25.
The result for SSEH reads at most 0.25; that for DFIV, at most 0.25.
The result for TDMW reads at most 0.25; that for GFQI, at most 0.25.
Turning to RGVG, the enrichment ratio is at most 0.25.
With FHDG the figure was at most 0.25; with EAWH, at most 0.25; with PYLI, at most 0.25.
The result for AETM reads at most 0.25; that for GSVC, at most 0.25; that for HACI, at most 0.25.
Turning to HWAI, the enrichment ratio was at most 0.25.
The result for LDRQ reads at most 0.25.
Regarding DGWQ, the enrichment ratio is at most 0.25.
The result for VWGV reads at most 0.25; that for FRWA, at most 0.25; that for APYI, at most 0.25.
Take LKIC: the enrichment ratio is at most 0.25.
With YNAA the figure was at most 0.25; with QDDM, at most 0.25; with LPFT, at most 0.25.
On to FDNV, for which the enrichment ratio was at most 0.25.
The result for MKLQ reads at most 0.25; that for SDME, at most 0.25.
For INNS, the enrichment ratio is at most 0.25.
With PFKF the figure was at most 0.25.
The result for RMAQ reads at most 0.25; that for HWMA, at most 0.25.
For LEDP, the enrichment ratio was at most 0.25.
For the variant FQEF, the enrichment ratio was at most 0.25.
Turning to PFNH, the enrichment ratio is at most 0.25.
The result for LGMF reads at most 0.25; that for YNIM, at most 0.25; that for FMHL, at most 0.25.
With TKIS the figure was 4.17; with SAHK, at most 0.25.
The result for KRDF reads at most 0.25.
For PQVH, the enrichment ratio was at most 0.25.
With VHCE, the enrichment ratio is at most 0.25.
With WNEY the figure was at most 0.25; with WFTK, at most 0.25; with QTHS, at most 0.25.
The result for FMYD reads at most 0.25; that for MDPI, at most 0.25.
With VPVQ the figure was at most 0.25.
For the variant VEES, the enrichment ratio was at most 0.25.
As to HVFW, the enrichment ratio is at most 0.25.
The result for NSAK reads at most 0.25.
With YKPP the figure was at most 0.25; with KYEQ, at most 0.25.
For HYVF, the enrichment ratio was at most 0.25.
Turning to QMTT, the enrichment ratio is at most 0.25.
Regarding VNRS, the enrichment ratio is at most 0.25.
As for PFAL, the enrichment ratio was at most 0.25.
With QHCY the figure was at most 0.25; with QQSY, at most 0.25; with KDFG, at most 0.25.
LNDL: the enrichment ratio is at most 0.25.
Take RNMN: the enrichment ratio is at most 0.25.
Consider PMKQ, for which the enrichment ratio is at most 0.25.
Regarding AKNM, the enrichment ratio is at most 0.25.
The result for HPVW reads at most 0.25.
The result for HGTH reads at most 0.25; that for IPTF, at most 0.25; that for DPWI, at most 0.25.
With ALNG the figure was at most 0.25; with WDTY, at most 0.25; with DTFM, at most 0.25.
For RNLE, the enrichment ratio is at most 0.25.
Take YHHW: the enrichment ratio is at most 0.25.
With IAYR the figure was at most 0.25; with IMNS, at most 0.25; with MDNA, at most 0.25.
For ICDS, the enrichment ratio is at most 0.25.
The result for QICH reads at most 0.25; that for IRFG, at most 0.25; that for TWTA, at most 0.25.
The result for QYFM reads at most 0.25; that for AGFW, at most 0.25; that for WKDQ, at most 0.25.
With TPIW the figure was at most 0.25.
Regarding LSVV, the enrichment ratio is at most 0.25.
With FQGK the figure was at most 0.25; with FAIF, at most 0.25.
Regarding SMPV, the enrichment ratio is at most 0.25.
For the variant LYDC, the enrichment ratio was at most 0.25.
The result for VNNT reads at most 0.25.
With DCMF the figure was at most 0.25.
With ICSP, the enrichment ratio was at most 0.25.
For the variant FKDD, the enrichment ratio was at most 0.25.
As for ASEV, the enrichment ratio is at most 0.25.
The result for MIKK reads at most 0.25; that for AISV, 15.9.
With LKRS the figure was at most 0.25.
TMWA: the enrichment ratio was at most 0.25.
The result for IDHF reads at most 0.25; that for KSGC, at most 0.25; that for LCAK, at most 0.25.
Regarding KLQG, the enrichment ratio was at most 0.25.
With PCTW the figure was at most 0.25.
The result for DKTP reads at most 0.25.
As for GSAG, the enrichment ratio was determined as 1.06.
